Hit rate of the full screen: of about 350,000 compounds, about 2,300 (0.66%) were called active. The shares of active, inactive and inconclusive entries below differ from those in the screen.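 How the source made its calls: active means mean inhibition of at least 50% after viability correction, with every replicate also passing that limit; inconclusive means mean reaches 50% but only one of two replicates passes; inactive means the rest.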
Experiment: blockers of EWS/Fli transcriptional output – A673 cells, NR0B1 luciferase, luminescence, MLPCN library, primary screen (AID 651661);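 further: firefly luciferase signal divided by Alamar Blue viability fluorescence both relative to DMSO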
Conditions: A673 NR0B1-luciferase reporter, viability-normalised; at 12.6 µM; active compounds read high
With `COc1ccc(-c2cc3ccccc3s2)cc1[C@H]1[C@H]2C=CC[C@@H](C)[C@@H]2C(=O)N1Cc1ccccc1` the inhibition was inactive: -101%. In the case of `C[C@@H]1CN([C@@H](C)CO)C(=O)c2cc(/C=C/c3ccccc3)cnc2O[C@H]1CN(C)Cc1cccnc1`, the inhibition is reported as inactive: 0.339%. For `CN(Cc1cccc(F)c1)C(=O)C1CC(=O)N(Cc2ccco2)C1` (centres undefined), the inhibition was inactive: -9.21%. In the case of `C[C@@H]1CN([C@H](C)CO)C(=O)c2cccc(NC(=O)c3cnccn3)c2O[C@H]1CN(C)Cc1ccccc1`, the inhibition is reported as inactive: 1.71%. For `O=C(/C=C/c1cc(Br)ccc1O)c1ccco1`, the inhibition was active: 58.9%. For `CCC[C@@H]1C[C@@]1(CCC)[C@@H](NP(=O)(c1ccccc1)c1ccccc1)c1ccc(C(=O)OC)cc1`, the inhibition was inactive: 20.8%. In the case of `C=C1CCc2c([nH]c3ccc(OCC(C)C)cc23)C1=O`, the inhibition is reported as inconclusive: 52.6%. With `Cc1ccc(CNc2nc(NCC3CC3)nc3ccsc23)c(C)c1` the inhibition was inactive: 29.4%. In the case of `Cc1nc2c3cc(F)ccc3n(Cc3ccccc3)c2s1`, the inhibition is reported as inconclusive: 54%. In the case of `CCOC(=O)Nc1ccc2c(c1)N(C(=O)CCCl)c1ccccc1[S@]2=O`, the inhibition is reported as inconclusive: 50.3%. In the case of `COc1cc2c(cc1OC)CN(C(=O)/C=C/c1cccs1)CC2`, the inhibition is reported as inconclusive: 50.7%. For `CCS(=O)(=O)c1ncc(Cl)c(C(=O)Nc2ccccc2OC)n1`, the inhibition was inconclusive: 54.9%. In the case of `C[C@@H]1CN([C@@H](C)CO)C(=O)c2cc(-c3ccncc3)cnc2O[C@@H]1CN(C)S(=O)(=O)c1ccc(F)cc1`, the inhibition is reported as inactive: -7.75%. For `CCCCn1c(=O)[nH]c(=O)c2c1nc(-c1ccc(OC)c(Br)c1)n2CC(C)C`, the inhibition was inactive: 18%. For `COc1cccc(-c2cnc3c(NC(C)=O)cc(-c4cccc(C(=O)NCCN(C)C)c4)cn23)c1`, the inhibition was inconclusive: 54.6%. With `COc1cc(/C=N\Nc2nc(-c3ccc(C)cc3)c(NC(C)=O)s2)ccc1O` the inhibition was active: 54.2%. With `O=C(NCC[C@@H]1CC[C@@H](NC(=O)C2CC2)[C@H](CO)O1)c1ccc(F)cc1` the inhibition was inactive: 3.13%. For `O=c1oc2ccccc2cc1-c1nc2c(s1)CCCC2`, the inhibition was active: 59.6%. In the case of `O=C(Nc1c(Cl)ccc2nsnc12)c1ccc([N+](=O)[O-])o1`, the inhibition is reported as inconclusive: 54.1%. In the case of `CCC(C(=O)NCc1ccccc1)n1c(CSCCOc2ccccc2)nc2ccccc21` (centres undefined), the inhibition is reported as inconclusive: 50.6%. In the case of `CN1c2ccc(-c3ccc(F)cc3)cc2[C@H]2[C@H](CCN2S(=O)(=O)c2ccc(F)cc2)[C@H]1CO`, the inhibition is reported as inconclusive: 47%. In the case of `CC(=O)Nc1ccc(S(=O)(=O)Nc2nc3ccccc3nc2N2CCc3ccccc3C2)cc1`, the inhibition is reported as inactive: -31.7%. With `CC(C)CC(N)c1csc(NC(=O)c2cc(C(C)(C)C)nn2Cc2ccccc2)n1` (centres undefined) the inhibition was inconclusive: 50.1%. In the case of `Cc1noc(C)c1NC(=O)N[C@@H]1C=C[C@@H](CC(=O)N2CCN(C)CC2)O[C@H]1CO`, the inhibition is reported as inactive: -2.13%. With `NC(=O)c1cccc(-c2noc(-c3ccccc3F)n2)c1` the inhibition was active: 86.7%. For `Cc1ccc(NC2=C(Cl)C(=O)c3ccccc3C2=O)cc1`, the inhibition was inconclusive: 52%. With `COc1ccc(S(=O)(=O)Nc2ccc3c(c2)C(=O)N([C@H](C)CO)C[C@@H](C)[C@H](CN(C)C(=O)Nc2ccc(F)cc2)OCCCC[C@H](C)O3)cc1` the inhibition was inactive: 1.77%. For `Cn1c(=NC(=O)CCl)sc2ccccc21`, the inhibition was active: 73.5%. With `C#CCN(C[C@@H]1[C@@H](OC(=O)Nc2cccs2)[C@@H](OC(=O)Nc2cccs2)Cn2c(=O)ccc(=O)n21)S(=O)(=O)c1ccc(C)cc1` the inhibition was inconclusive: 51%. With `CCC[C@@H](CN[C@@H](CNC)[C@H](C)CC)NCC1CCC(C(C)(C)C)CC1` (some centres undefined) the inhibition was active: 56.2%. In the case of `CC(=O)Nc1ccc(S(=O)(=O)N2c3ccc(F)cc3CCC2C)cc1` (centres undefined), the inhibition is reported as inconclusive: 53.7%. With `CC[C@]1(c2ccccc2C)ON(c2ccccc2C(F)(F)F)C1=O` the inhibition was inactive: -0.367%. With `O=C(NCC(=O)N1CC=C(c2ccccc2)CC1)c1ccc(OC(F)F)cc1` the inhibition was inconclusive: 50.1%. For `CCN(CC)CCCNc1nc2ccccc2c2[nH]c3ccc(OC)cc3c12`, the inhibition was inconclusive: 51.4%. In the case of `Cc1cc(C)nc(N/N=C2/CCCC/C2=C\c2ccccc2)n1`, the inhibition is reported as inconclusive: 51.5%. With `Cc1cc2c(cc1C)C(c1ccccc1F)CC(=O)N2` (centres undefined) the inhibition was inconclusive: 50.3%. In the case of `Cc1nc(N)nc(N)c1-c1ccc(Cl)c(Cl)c1`, the inhibition is reported as active: 52.9%. In the case of `O=C1CC(c2cc(F)ccc2F)c2cc3c(cc2N1)CCC3` (centres undefined), the inhibition is reported as inconclusive: 51.5%. For `COc1ccc(C(C)(O)c2nc(-c3ccncc3)cs2)cc1` (centres undefined), the inhibition was active: 58.9%. With `CNc1cncc(-c2ccc(NS(C)(=O)=O)cc2)n1` the inhibition was inconclusive: 50.2%. With `Cn1nnnc1Sc1ncnc2scc(-c3cccc(Br)c3)c12` the inhibition was inconclusive: 53.3%. In the case of `O=c1oc2cc(O)ccc2s1`, the inhibition is reported as active: 60.3%. In the case of `COc1ccc(C(=O)NCc2nnc(SCC(=O)N3CCc4ccccc43)n2CCc2ccccc2)cc1`, the inhibition is reported as inconclusive: 54.3%. For `COc1cc(C(=O)Oc2ccccc2OC(=O)c2cc(OC)c(OC)c(OC)c2)cc(OC)c1OC`, the inhibition was inconclusive: 51.2%. In the case of `CCOc1ccc(N(CC(=O)NCCSc2ccccn2)S(=O)(=O)c2ccc(Cl)cc2)cc1`, the inhibition is reported as inactive: 12.8%. With `COc1ccc(NS(=O)(=O)c2ccc(-c3cnc(C4CC4)o3)cc2)cc1OC` the inhibition was inconclusive: 51.3%. In the case of `CCOC(=O)c1cccc(NC(=O)c2ccc(N(C)C)cc2)c1`, the inhibition is reported as active: 75.8%. In the case of `CN1C(=O)C(O)(CC(=O)/C=C\c2ccc3c(c2)OCO3)c2ccccc21` (centres undefined), the inhibition is reported as inconclusive: 54.6%. With `C[C@@H]1CCCCO[C@@H](CN(C)S(=O)(=O)c2ccccc2)[C@@H](C)CN([C@@H](C)CO)C(=O)c2cc(NC(=O)CCCN(C)C)ccc2O1` the inhibition was inactive: 37.6%. For `COc1cccc(-c2sc3ccc(OC)cc3c2-c2ccc(OCCN(C)C)cc2)c1`, the inhibition was inactive: 26.2%. In the case of `C=CCNc1cc(C)oc(=O)c1C(=O)CC`, the inhibition is reported as inactive: -10.5%. For `COCCCNc1c2c3c(cccc3[nH]c1=O)C(=O)c1ccccc1-2`, the inhibition was inconclusive: 51.1%. In the case of `CCCC(=O)Nc1ccc2c(c1)C(=O)N(C)[C@@H]1CC[C@@H](CC(=O)OC)O[C@H]1CO2`, the inhibition is reported as inconclusive: 50.5%. In the case of `CCCCCCCCn1cnc2c(N)c(C)c(C)cc21`, the inhibition is reported as inconclusive: 53.3%. With `C[C@@H]1CN([C@@H](C)CO)C(=O)c2cc(NC(=O)c3ccccc3)ccc2O[C@@H](C)CCCCO[C@@H]1CN(C)Cc1ccc2c(c1)OCO2` the inhibition was inactive: 5.08%. In the case of `C=C1CC(COc2ccc3c(C)c(Cl)c(=O)oc3c2)(c2ccccc2)OC1=O` (centres undefined), the inhibition is reported as inconclusive: 50.2%. For `Cc1noc(C)c1S(=O)(=O)Nc1ccc2c(c1)C(=O)N([C@H](C)CO)C[C@@H](C)[C@@H](CN(C)CC1CC1)O2`, the inhibition was inactive: -4.33%. In the case of `CC1(C)Oc2ccc3ccc(=O)oc3c2/C(=C/Nc2cccc(O)c2)C1=O`, the inhibition is reported as inconclusive: 50.8%. In the case of `COc1cc(NC(=O)c2ccccc2Cl)c2ncccc2c1`, the inhibition is reported as active: 57.6%. In the case of `Cc1noc(C)c1S(=O)(=O)Nc1ccc2c(c1)CC(=O)N([C@@H](C)CO)C[C@H](C)[C@H](CN(C)Cc1ccc(C(F)(F)F)cc1)O2`, the inhibition is reported as inconclusive: 52%. In the case of `Cc1cccc(Cn2ncc(Cl)c(Cl)c2=O)c1`, the inhibition is reported as inconclusive: 55.4%. For `C[C@H](CO)N1C[C@H](C)[C@H](CN(C)Cc2ccc(C(=O)O)cc2)OCCCC[C@H](C)Oc2ccc(NC(=O)Cc3ccccc3)cc2C1=O`, the inhibition was inconclusive: 50.1%. In the case of `O=C(CC(C(=O)c1ccccc1)c1ccccc1)c1ccccc1` (centres undefined), the inhibition is reported as inactive: -5.33%. For `Cc1ccc(S(=O)(=O)n2ccc3c(OCCOCCNCc4ccc(F)cc4)cccc32)cc1`, the inhibition was inconclusive: 51.6%. In the case of `c1ccc2c(NCCCN3CCOCC3)c3ccccc3nc2c1`, the inhibition is reported as inconclusive: 50.2%. With `Cc1ccc(C2=NN=C(NC(=O)CSc3nc(C)cc(C)n3)SC2)cc1` the inhibition was inconclusive: 51.8%. For `CCOC(=O)C(C)Oc1cccc2c(=O)n(CC(=O)Nc3ccc(OCC)cc3)ccc12` (centres undefined), the inhibition was inconclusive: 50.2%. For `CCOc1ccc(C(C(=O)NCC2CCCO2)N(C(=O)c2snc(C(N)=O)c2N)c2ccccc2F)cc1` (centres undefined), the inhibition was inactive: 7.93%. In the case of `COc1ccc(-c2cnc3c(NC(C)=O)cc(-c4ccccc4OC)cn23)cc1OC`, the inhibition is reported as inconclusive: 50.4%. For `CO[C@H]1CN(C)C(=O)c2ccc(NC(=O)NC(C)C)cc2OC[C@@H](C)N(Cc2cncnc2)C[C@@H]1C`, the inhibition was inactive: 0.175%. For `O=C1Nc2ccc(Br)cc2/C1=C/C(=O)c1ccc2c(c1)OCO2`, the inhibition was inconclusive: 51.5%. With `C[C@H](CO)N1C[C@H](C)[C@H](CN(C)Cc2ccc(C(=O)Nc3ccccc3N)cc2)OCCCC[C@H](C)Oc2ccc(NC(=O)C3CCCCC3)cc2C1=O` the inhibition was inactive: -1.19%. In the case of `C/C=C/c1ccc2c(c1)O[C@@H](CN(C)Cc1cccc(F)c1)[C@H](C)CN([C@@H](C)CO)S2(=O)=O`, the inhibition is reported as inactive: 24.2%. With `C=CC[C@]1(C(=O)NCc2ccccc2)COC(c2ccc(OCCCO)cc2)=N1` the inhibition was inactive: 15.5%. For `Cc1cc(=O)n2c3c(c4c(cc13)c(CN(C)C)cc(=O)n4C)OC2`, the inhibition was inconclusive: 50.2%. With `COc1ccccc1C(=O)Nc1nnc(CCc2ccccc2)s1` the inhibition was inconclusive: 52.2%. With `COc1ccc(NS(=O)(=O)c2cc(NC(=O)c3sccc3C)ccc2N2CCOCC2)cc1` the inhibition was inconclusive: 51.1%. With `CC(C)C#Cc1ccc2c(c1)O[C@@H](CN(C)Cc1ccccc1)[C@H](C)CN([C@H](C)CO)S2(=O)=O` the inhibition was inconclusive: 50.6%. For `Cc1cccc(C(=O)O/N=C(\N)c2ccccn2)c1`, the inhibition was active: 76.8%.
